# Test results as given in the supplement of paper PMC11417369.
# Some of the results follow.
# Test system: PfSIP2 AP2 domain 1 (GST-tagged)
# Test: gcPBM binding intensity (ln(normalized median fluorescence intensity)); higher = stronger DNA binding
# Method in brief: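 The highest Masliner-normalised natural-log median intensity across replicate spots of either probe orientation is reported as binding intensity. GST-tagged P. falciparum DNA-binding domains expressed in E. coli were applied for 1 h to an Agilent 4 × 180k array of primer-extended double-stranded 36-bp intergenic genomic probes plus negative controls, and bound protein was detected with Alexa488 anti-GST antibody and scanned at 488 nm.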
row,Sequence,gcPBM binding intensity (ln)
1,AACTTGTATATATACACACACACACTGTCTTTTTTT [CACACA_site1963],7.17
2,AAAAAAAAGTTGTAAGTGCATGTATATAATAATATT,8.08
3,TGATCACATAATAAATGTACAAAAAAAAATTAATAA [XGTACX_site5867],6.75
4,TTTAGATAATTCATTACACACATGTATATATATATA [CACACA_site3483],9.11
5,TAAGGAAGAAGAAAAAGTACTAAAGGTATAAATGCG [XGTACX_site2628],7.09
6,AGAATTAAAATAATACGTACACACATGTATAATACA [XGTACX_site1878],7.32
7,ATTATATCTATAATATGTACATATTATAATATATAT [XGTACX_site3211],7.33
8,AATTGTTAATGGTACGAACACACATATAAAGATGCA [CACACA_site2043],7
9,ATTTTATTTTATTAAGTGCAAAAAAAAAAAAAGAAA,8.24
10,ACCTCTCATATGTTATAAACAAAATGAAAATTTCAT [XGTACX_negctrl_site303],7.57
11,TGTACAATATAAGGAGCACACAAAAATGGATAAATA [CACACA_site8216],7.14
12,ATATGGCATAAAACATGTACATGTTCATAAATATAT [XGTACX_site1924],7.03
13,GCTAGTTCATAAAATTGTACAAAAAAAAAAAAAAAA [XGTACX_site2223],7.07
14,TTTTTTATCTAATATTTTATAATTTTCATAAATTTG [GTGCAC_negctrl_site534],6.78
15,AAAAAAAAAAAAAAAAGTACATGCCATATATTTTCA [XGTACX_site4580],8.03
16,AAATAATCTATACACAACGTATAAGAATAATATATG [TGCATGCA_negctrl_site422],6.9
17,AATAGAAACATTTTACATGTATATATAATTTTTTTT [XGTACX_negctrl_site190],6.71
18,TAAATAATGTTAAACACACATACCGATATATAATTA [CACACA_site2711],6.82
19,TATATATAAGAAAAAAGTACAGATATATATATATTC [XGTACX_site4788],7.25
20,TATACAGACAGACACACACACATATATATATATATA [CACACA_site1734],9.12
21,TTTTAAGAAAAAAAATGTACACATGAAAATAGTGAA [XGTACX_site5898],7.05
22,TGTTATATTATAACTACACACGTATTATGTTATATC [CACACA_site839],7.08
23,AAATTTTCACTTCAAAAACACACGTATTTTTTTCCT [CACACA_site3813],6.99

row,Sequence,gcPBM binding intensity (ln)
1,TTATATTTATATTTATGTACATATTTTGTGTGAAAA [XGTACX_site2367],7.27
2,CCTAAATAATATCTATCACACACGCATATATACATA [CACACA_site8838],7.03
3,TCTATTTATATGTATTGTACAATATAGATGTGTATT [XGTACX_site5646],7.22
4,GTAATACACAGACACACACACATACACATATTTATA [CACACA_site7313],7.32
5,AAATTAAAAATAATTACACACATAGAAAAATTATAT [CACACA_site2275],6.99
6,TTCTATATATAATATTGTACTTAATTATTTTATTTT [XGTACX_site2701],6.91
7,AGTGTATATAGAAACATACACACATATTAATTTTAC [CACACA_site3127],6.84
8,TAGCTGTTCAAAAAATGTACATATATAATATATATA [XGTACX_site5842],7.49
9,ATATATATGCATTCAAGTACAAAAATATATGTTAAA [XGTACX_site910],7.11
10,ATATAATAACATAACACACACATGTATTTATAGGTG [CACACA_site359],6.97
11,ACATTATAATATTATTGTACTATATATATAATATAT [XGTACX_site2291],7.28
12,AAAAAAAAAAAAAAAACACACATATATATATAATAT [CACACA_site1159],7.42
13,GATAATCAGAATGGGGTGCAAAGAAAAAAAAAAAAA,11.3
14,ATAATAAGAAAAAAAAAAAAAAAAAAAAAAAAAAAA [TGCATGCA_negctrl_site377],6.9
15,ATATTGAAATGTTAATAGAAATATATGGTTAAATTG [XGTACX_negctrl_site212],6.87
16,ATGTATATAAATAGGTGTACATATAAGGTGTTAAGC [XGTACX_site5465],7.75
17,TACACAAACGTTATACGTACACAGGTTTTTCTTTTA [XGTACX_site5427],6.82
18,ACATAAGAATTTTTATGTACTCATAATATTTTATAT [XGTACX_site2398],7.17
19,GAAATATTTGTAAAAACATGCATGGTACTTTTAAAA [TGCATGCA_site6],6.96
20,TACATACTAAAAAAATGTACTTGTATTGTTTTTTTA [XGTACX_site8357],6.84
21,TATATATATATATACACATGCAAAAATTTTTAATTT [TGCATGCA_site82],9.62
22,TTTCTATATGGATTTGCACACATAAAAATGCTTATA [CACACA_site8751],7.2
